In patent publication US20250092143A1 (UNIVERSITY OF SOUTHERN CALIFORNIA, published 2025):

Key:
[1] = biological target: T1, PD-L2 on IFN-γ stimulated BT-20 cells (human, UniProt Q9BQ51 20-273); test: flow cytometry on BT-20 cells, anti-HA detection; weaker than GEMINI-Exos
T1 construct: whole, on cells; BT-20 cells also carry PD-L1 and EGFR; also called PD-L2^+ BT-20 cells
T1 sequence (looked up): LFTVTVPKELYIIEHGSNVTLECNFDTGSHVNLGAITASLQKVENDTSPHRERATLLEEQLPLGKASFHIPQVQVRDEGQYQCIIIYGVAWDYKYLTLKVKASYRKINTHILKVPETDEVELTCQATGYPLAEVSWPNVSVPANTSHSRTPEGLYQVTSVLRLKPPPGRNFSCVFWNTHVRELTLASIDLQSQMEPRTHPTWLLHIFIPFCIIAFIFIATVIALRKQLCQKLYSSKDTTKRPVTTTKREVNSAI

[2] = biological target: T2, PD-L1 on IFN-γ stimulated BT-20 cells (human, UniProt Q9NZQ7); test: as above
T2 construct: whole, on cells; BT-20 cells also carry PD-L2 and EGFR; also called PD-L1^+ BT-20 cells; PD-L1-expressing BT-20 cells

[3] = biological target: T3, OX40-hFc (human, UniProt P43489 29-214); test: ELISA; exosomes coated, OX40-hFc added, anti-human IgG-HRP detection; reference for GEMINI-Exos
T3 construct: Bought from BioLegend; also called OX40-Fc; biotinylated OX40-hFc; not shown: human Fc (hFc) of the bought reagent
T3 sequence (looked up): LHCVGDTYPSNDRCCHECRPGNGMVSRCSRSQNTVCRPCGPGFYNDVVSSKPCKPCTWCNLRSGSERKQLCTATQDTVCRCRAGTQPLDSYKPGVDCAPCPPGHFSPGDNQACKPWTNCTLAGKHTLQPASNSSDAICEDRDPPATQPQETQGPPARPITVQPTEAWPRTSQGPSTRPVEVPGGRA
Procedure: (§1) ELISA analysis of binding of engineered exosomes to ligands and receptors. […] High-binding 96 well plates (Greiner Bio-One, Monroe, NC) were coated with various concentrations of exosomes overnight at room temperature. Following extensive washing with PBST, wells were blocked with PBS containing 1% BSA for 2 hours at room temperature, followed by extensive washing with PBST. Corresponding ligands or receptors ([…]; PD-L1-hFc and PD-L2-hFc from PeproTech, Inc. and OX40-hFc from BioLegend) were added and incubated for 2 hours at room temperature, followed by extensive washing with PBST. Goat anti-human IgG-HRP was subsequently added for 1-hour incubation at room temperature, followed by extensive washing. QuantaBlu fluorogenic peroxidase substrate (Thermo Fisher Scientific, MA) was then added.

[4] = biological target: T4, PD-L2-hFc (human, UniProt Q9BQ51 20-220, limits assumed); test: ELISA; exosomes coated, PD-L2-hFc added, anti-human IgG-HRP detection; reference for GEMINI-Exos
T4 construct: Bought from PeproTech; also called PD-L2-Fc; not shown: human Fc (hFc) of the bought reagent
T4 sequence (looked up): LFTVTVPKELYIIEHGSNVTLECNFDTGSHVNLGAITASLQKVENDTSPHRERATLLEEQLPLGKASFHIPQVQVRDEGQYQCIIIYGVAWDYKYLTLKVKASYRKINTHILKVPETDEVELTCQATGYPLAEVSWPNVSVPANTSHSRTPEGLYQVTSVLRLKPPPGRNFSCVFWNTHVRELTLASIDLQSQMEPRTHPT
Procedure: as §1

T2 sequence (Q9NZQ7 19-290): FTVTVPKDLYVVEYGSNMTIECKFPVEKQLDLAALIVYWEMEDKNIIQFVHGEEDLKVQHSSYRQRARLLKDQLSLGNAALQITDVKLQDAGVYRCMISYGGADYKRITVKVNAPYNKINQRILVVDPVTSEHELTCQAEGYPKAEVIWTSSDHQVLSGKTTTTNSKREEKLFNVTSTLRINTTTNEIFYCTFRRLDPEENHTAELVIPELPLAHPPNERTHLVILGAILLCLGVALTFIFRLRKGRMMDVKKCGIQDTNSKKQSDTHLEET

- binding result [1]: binds
- binding result [2]: binds
- binding result [3]: binds
- binding result [4]: binds
B1: PD-1-OX40L-Exos (other)
chain: YPYDVPDYAGAQPARSF[about 150 residues not shown]VGVVGGLLGSLVLLVWVLAVICSRAARGTIGARRTGQPLKEDPSAVPVFSVDYGELDFQWREKTPEPPVPCVPEQTEYATIVFPSGMGTSSPARRGSADGPRSAQPLRPEDGHCSWPLASGGGGSPVKGGTKCIKYLLFGFNFIFWLAGIAVLAIGLWLRFDSQTKSIFEQETNNNNSSFYTGVYILIGAGALMMLVGFLGCCGAVQESQCMLGLFFGFLLVIFAIEIAAAIWGYSHKDEVIKEVQEFYKDTYNKLKTKDEPQRETLKAIHYALNCCGLAGGVEQFISDICPKKDVLETFTVKSCPDAIKEVFDNKFHIIGAVGIGIAVVMIFGMIFSMILCCAIRRNREMVGGGGSGGGGSVDERVQPLEENVGNAARPRFERNKLLLVASVIQGLGLLLCFTYICLHFSALQVSHRYPRIQSIKVQFTEYKKEKGFILTSQKEDEIMKVQNNSVIINCDGFYLISLKGYFSQEVNISLHYQKDEEPLFQLKKVRSVNSLMVASLTYKDKVYLNVTTDNTSLDDFHVNGGELILIHQNPGEFCVLHHHHHH
notes: Engineered exosome from Expi293F cells transfected with pDisplay-PD-1-CD9-OX40L; also called exosomes displaying the HA-PD-1-CD9-OX40L-6×His fusion protein; PD-1-CD9-OX40L fusion
